Results published in publication PMC4336329 (PLoS ONE, 2015).
In all, about 310,000 compounds went through this assay and about 2,200 (0.71%) showed an effect of 50% or more. Effects have a minus sign here. This is one part of the list.

These molecules were tested against human ether-à-go-go-related gene (hERG) potassium channel (human, UniProt Q12809) (assay: primary screen, population patch clamp on CHO cells stably expressing hERG).
Sequence of human ether-à-go-go-related gene (hERG) potassium channel (Q12809 whole entry, looked up): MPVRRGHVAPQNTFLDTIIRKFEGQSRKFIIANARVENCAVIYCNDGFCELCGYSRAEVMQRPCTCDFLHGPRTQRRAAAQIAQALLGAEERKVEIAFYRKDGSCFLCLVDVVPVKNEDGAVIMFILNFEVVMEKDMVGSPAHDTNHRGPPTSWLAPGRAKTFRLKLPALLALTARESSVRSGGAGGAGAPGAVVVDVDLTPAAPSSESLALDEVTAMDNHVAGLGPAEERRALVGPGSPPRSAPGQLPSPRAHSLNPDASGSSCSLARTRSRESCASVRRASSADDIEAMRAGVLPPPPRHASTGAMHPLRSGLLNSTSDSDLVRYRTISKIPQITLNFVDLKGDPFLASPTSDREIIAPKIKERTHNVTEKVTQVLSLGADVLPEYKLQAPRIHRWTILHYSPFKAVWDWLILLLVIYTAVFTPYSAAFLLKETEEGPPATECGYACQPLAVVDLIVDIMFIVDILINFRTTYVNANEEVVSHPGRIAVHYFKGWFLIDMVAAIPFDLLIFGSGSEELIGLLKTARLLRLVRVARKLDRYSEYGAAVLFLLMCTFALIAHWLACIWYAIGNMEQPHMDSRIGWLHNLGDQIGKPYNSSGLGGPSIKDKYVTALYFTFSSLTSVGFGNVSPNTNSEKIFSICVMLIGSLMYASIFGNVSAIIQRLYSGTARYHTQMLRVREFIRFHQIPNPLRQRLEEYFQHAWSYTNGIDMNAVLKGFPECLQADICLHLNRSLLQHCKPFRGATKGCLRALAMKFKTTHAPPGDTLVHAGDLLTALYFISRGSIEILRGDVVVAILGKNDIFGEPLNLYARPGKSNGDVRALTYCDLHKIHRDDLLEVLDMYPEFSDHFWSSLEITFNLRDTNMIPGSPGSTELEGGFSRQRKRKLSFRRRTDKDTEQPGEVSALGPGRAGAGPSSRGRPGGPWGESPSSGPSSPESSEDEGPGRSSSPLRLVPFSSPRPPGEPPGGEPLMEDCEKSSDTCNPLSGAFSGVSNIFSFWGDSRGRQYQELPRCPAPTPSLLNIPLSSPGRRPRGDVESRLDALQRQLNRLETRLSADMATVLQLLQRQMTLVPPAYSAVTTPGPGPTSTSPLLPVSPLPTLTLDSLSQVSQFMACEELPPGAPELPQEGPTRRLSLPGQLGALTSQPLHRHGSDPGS

Compound	hERG current change (%, negative = inhibition) at 1uM [%]
COc1ccc(S(=O)(=O)Oc2cccc(/C=N/N=C3/NC(=O)C(CC(=O)O)S3)c2)cc1 (stereo not shown)	11.7
[O-]C1=N/[N+](=C/c2ccccc2)CC1	6.43
Cc1ccc(C)n1-c1sc2c(c1C#N)CCC(C)C2 (stereo not shown)	12.5
CCCn1nc(C(=O)NCC2COc3ccccc3O2)c2ccccc2c1=O (stereo not shown)	-0.0249
Cc1cccnc1Nc1nc(-c2ccc(F)cc2)cs1	12.9
COC(CN1C(=O)C(=O)/C(=C(/O)c2ccccc2)C1c1ccccn1)OC (stereo not shown)	8.89
COc1ccc(N(CC(=O)NCCC2=CCCCC2)S(=O)(=O)c2ccccc2)cc1OC	10.6
CC(C)CN1C(=O)c2ccc(C(=O)Nc3ccncc3)cc2C1=O	-9.26
COC(=O)c1cc(C(=O)NCCCN2CCOCC2)cc([N+](=O)[O-])c1.Cl	2.7
COC(=O)c1ccc([N+](=O)[O-])cc1N1C(=O)C2C3CCC(C3)C2C1=O (stereo not shown)	17.9
CCC1CCCCN1C(=O)CSc1nnc(-c2cccs2)o1 (stereo not shown)	-4.78
CCCCNC(=O)c1sc2nc(C)cc(COC)c2c1-n1cccc1	-1.25
COc1ccnc(Oc2ccc(F)cc2)c1C(=O)N/C=N/OCc1ccccc1	0.714
CCOc1ccc(C2C(C(C)=O)=C(O)C(=O)N2CCc2c[nH]c3ccccc23)cc1 (stereo not shown)	8.09
O=C(COC(=O)C12CC3CC(CC(C3)C1)C2)NCCCc1ccccc1	12.3
COc1cccc(C(=O)N/N=C2\SCC(=O)N2Cc2ccc3c(c2)OCO3)c1	-7.96
COc1ccc(C(=O)OCC(=O)C(C)(C)C)cc1S(=O)(=O)N(C)CCc1cccnc1	9.52
CCN(C(=O)COC(=O)CSc1ccccc1)c1c(N)n(Cc2ccccc2)c(=O)[nH]c1=O	7.76
CCCN(CCC)S(=O)(=O)c1cc(CN2C(=O)c3cccnc3C2=O)ccc1OC	12.4
COCCCNC(=O)Cn1nnc(-c2ccccc2NC(=O)c2ccc(F)cc2)n1	13.7
Cc1cccc(C(=O)N2CCC(n3nnc4cc(F)ccc43)CC2)c1	1.25
O=C(O)C1C2C=CC(C2)C1C(=O)NCCCN1CCOCC1 (stereo not shown)	14.1
COc1cccc(/C=C/C(=O)NNC(=O)c2ccco2)c1OC	5.54
Cc1ccc(SC[C@H](Cc2ccccc2)N2CC[C@@H](NC(=O)OCc3ccccc3)CCC2=O)cc1	2.6
Cc1cc(C)cc(Oc2nc3c(C)cccn3c(=O)c2/C=C(\C#N)C(=O)NC2CCS(=O)(=O)C2)c1 (stereo not shown)	5.75
CC(C)(C)NC(=S)N1CCC(C(=O)c2ccc(Cl)cc2)CC1	14.3
O=C(OCC(=O)N1CCOCC1)c1ccc(Br)cc1	15.8
O=C(Nc1ccc(C(=O)O)cc1)/C(=C\c1ccccc1)NC(=O)c1ccc(Br)cc1	9.2

Compound	hERG current change (%, negative = inhibition) at 1uM [%]
CCOc1ccc(S(=O)(=O)NCCC(=O)NCC(c2cccs2)N(C)C)cc1 (stereo not shown)	6.25
Cc1ccc(C2NC(c3ccc(C)cc3)C([N+](=O)[O-])C(C)(C)C2[N+](=O)[O-])cc1 (stereo not shown)	-16.3
Cc1cc(C)n2c(SCC(=O)N(C)C3CCCCC3)nnc2n1	11.7
CC(C)[C@]1(c2ccc(Cl)cc2)ON(c2ccccc2C(F)(F)F)C1=O	-3
CC(=O)NS(=O)(=O)c1ccc(NS(=O)(=O)c2ccc(F)cc2)cc1	12.1
O=[N+]([O-])c1ccc(N/N=C\c2cccnc2)nc1	4.27
Cc1ccc(-n2c(Cl)c(Cl)nc(Cl)c2=O)cc1	7.72
COc1nc(Nc2ccc(-c3nc4ccccc4o3)cc2)nc(N2CCOCC2)n1	7.79
COc1ccc(-c2cc(C(=O)Nc3ccccc3SC)no2)cc1	3.47
O=C(O)c1sccc1SCc1ccc(Cl)cc1Cl	15.1
COc1ccc(/C=N/Nc2ccc(C(=O)O)cc2)c(OC)c1OC	18.1
CCOC(=O)c1cccc(NC(=O)CN2C(=O)C3C4C=CC(C4)C3C2=O)c1 (stereo not shown)	-9.79
COc1ccccc1C(=O)NC(CCSC)C(=O)NNC(=O)c1ccccc1O (stereo not shown)	18
CCOc1ccc2[nH]c(C(=O)N/N=C/c3ccc(OC)cc3)cc2c1	12.7
CCc1c(C(=O)N/N=C/c2ccc(OCc3ccc(F)cc3)c(OC)c2)nnn1-c1nonc1N	22.3
CC(=O)C1=C(C)NC(=O)NC1c1cc(Br)ccc1OCC#N (stereo not shown)	20.2
CC(C)[C@H](NS(=O)(=O)c1cccc(C(F)(F)F)c1)C(=O)OCC(N)=O	11.4
COc1ccc(OCCCC(=O)Nc2cc(Cl)ccc2-n2cncn2)cc1	-18.2
CSCCC(NS(=O)(=O)c1ccc(Cl)cc1)C(=O)OCC(=O)c1ccc(F)cc1 (stereo not shown)	4.34
COc1ccc(/C=C2\Oc3cc(OCC(=O)N4CC(O)C[C@H]4C(=O)O)ccc3C2=O)c(OC)c1OC (stereo partly shown)	10.4
CCOC(=O)c1cnc(SCCN2CCOCC2)nc1N	12.8
CC(NC(=O)CCCn1cc([N+](=O)[O-])cn1)c1ccccc1 (stereo not shown)	4.13
COc1ccc2c(c1)C(C)CC(C)(C)N2C(=O)CSc1nc2ccccc2s1 (stereo not shown)	11.2
Nc1c(-c2ccc3c(c2)OCCO3)oc2ccccc2c1=O	10.3
CC1=CC(C)(C)Nc2ccc(OC(=O)CN3C(=O)C4CCCCC4C3=O)cc21 (stereo not shown)	-0.345
CC(=O)OC(CC(=O)O)C[N+](C)(C)C.[Cl-] (stereo not shown)	13.9
O=C(NC1CCCCC1)C(c1ccco1)N(Cc1cccs1)C(=O)Cn1nnc2ccccc21 (stereo not shown)	15.2
